Data as given in the supplement of paper PMC3334620.
The full ranking holds about 33,000 sequences; the median of “E-score (-0.5 to 0.5)” is about -0.036, and the highest 2% start at about 0.37. This is one part of the list.

biological target: T1, Yer064c (UniProt P40041); assay: PBM E-score (8-mer binding enrichment) (E-score (-0.5 to 0.5)); higher = stronger / more preferred TF binding; most listed sequences are background and not binding sites; conditions: protein concentration: 200 nM; construct: GST-full length
T1 sequence: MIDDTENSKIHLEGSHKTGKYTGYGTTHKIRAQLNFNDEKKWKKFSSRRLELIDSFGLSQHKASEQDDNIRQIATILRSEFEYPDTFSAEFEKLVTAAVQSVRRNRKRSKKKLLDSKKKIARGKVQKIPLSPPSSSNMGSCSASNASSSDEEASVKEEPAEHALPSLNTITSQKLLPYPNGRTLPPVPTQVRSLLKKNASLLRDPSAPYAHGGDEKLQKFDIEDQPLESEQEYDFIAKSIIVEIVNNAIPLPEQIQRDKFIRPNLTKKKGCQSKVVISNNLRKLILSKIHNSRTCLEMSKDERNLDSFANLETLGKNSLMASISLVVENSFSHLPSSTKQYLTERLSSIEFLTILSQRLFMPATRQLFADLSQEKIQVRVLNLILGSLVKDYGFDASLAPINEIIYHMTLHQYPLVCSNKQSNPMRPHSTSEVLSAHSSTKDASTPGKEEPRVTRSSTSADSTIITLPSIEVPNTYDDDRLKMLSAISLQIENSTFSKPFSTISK
Procedure, shortened: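 Detection of bound protein used fluorescent anti-GST, with scans normalised by masliner. The proteins were GST-tagged yeast transcription factors applied at about 100-200 nM to universal all-10-mer Agilent arrays made double-stranded by primer extension. Each ungapped eight-base word, pooled with its reverse complement, was scored with an E-score from the Universal PBM Analysis Suite.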

In order of rising “PBM E-score” value:
1. AAACCCCC  -0.365
2. GAAGGAGC  -0.361
3. GCCCCACA  -0.355
4. AAATGTCC  -0.343
5. CCCTTCTC  -0.339
6. CAGCCCCG  -0.324
7. CCAGGGCG  -0.314
8. CGCCCGTC  -0.3
9. AAAGTTCC  -0.297
10. ACGGGCCC  -0.286
11. CGCATCGC  -0.286
12. AAATTCCC  -0.281
13. CACCTCTC  -0.279
14. CCCTATCC  -0.275
15. GCGCTCCA  -0.274
16. AATGGCGT  -0.273
17. GCTGTCGA  -0.241
18. GGCCCACC  -0.236
19. GGGGGATA  -0.228
20. ATGCCCTG  -0.224
21. AGGTGGCG  -0.216
22. GTAGCCTA  -0.213
23. CGACAGCC  -0.212
24. CCTACGAA  -0.211
25. CGCACCTC  -0.209
26. GGCCAGGA  -0.209
27. AACAAGCC  -0.205
28. GGGGTGGA  -0.205
29. ATCGCTAC  -0.204
30. AAGGCACG  -0.201
31. CCGTTCAC  -0.2
32. GGCCTAGA  -0.197
33. GCGCCGCC  -0.197
34. GGTCCATA  -0.194
35. ACCTCCTC  -0.19
36. CACTGCTG  -0.187
37. CAGTTCGG  -0.186
38. CGACGGAG  -0.182
39. CGTGGGAC  -0.177
40. GCTATTCC  -0.175
41. ACCGACAA  -0.159
42. GCGGGTCC  -0.153
43. CAGTTGCA  -0.139
44. ACATCTGG  -0.137
45. AGTTTGTC  -0.134
46. ACCCTCAC  -0.132
47. AGACCCCT  -0.132
48. GAGTGCTA  -0.131
49. GGAAGATA  -0.125
50. GAGGGGAA  -0.124
51. GAGCCGGC  -0.122
52. CCCCCAGG  -0.115
53. AAAGAGCG  -0.115
54. GTTTTCGA  -0.115
55. AGCAATAC  -0.115
56. AAACCAGG  -0.113
57. AAGACCTA  -0.112
58. AACTCCGG  -0.108
59. GGGGCTCA  -0.108
60. ACGGTATG  -0.0999
61. GTAGACAA  -0.0969
62. ATCGGCAT  -0.0938
63. CCGAAAGA  -0.0898
64. AAAAAGCG  -0.0892
65. CATCTTTC  -0.0885
66. CCTACTCC  -0.0825
67. CGACATTA  -0.0819
68. AAGCTAGA  -0.0803
69. ACCTTGGG  -0.0782
70. CAAGCTTG  -0.0778
71. CCATAGCC  -0.0772
72. GCATTGAA  -0.0771
73. CATTGGTC  -0.0764
74. TAGCGTCA  -0.0749
75. GAGTTCCC  -0.0744
76. AGAGTATA  -0.0714
77. CGTAAAAC  -0.068
78. CACGCAGG  -0.0578
79. CCGGCCGA  -0.056
80. GATGCGTA  -0.0554
81. AGCCAGAC  -0.0524
82. AAGACATC  -0.0471
83. CAGCGCGG  -0.047
84. AATACGGG  -0.046
85. ATCCTCCG  -0.0457
86. ACATCAAG  -0.0456
87. CAGTTCTC  -0.0456
88. GATTTCCA  -0.0421
89. GACCCGCA  -0.039
90. ATCGTCGC  -0.037
91. GTCGGAAA  -0.0347
92. ACAGCGCC  -0.0291
93. CACTTACA  -0.0278
94. CGTGTCCC  -0.0252
95. AAAGAAAT  -0.0199
96. CATAAATG  -0.0161
97. GTAGCAAA  -0.0145
98. ATGCCTTG  -0.0136
99. ACTTTCCG  -0.0114
100. AGACTTTC  -0.00836
101. ATCCTGGA  -0.0068
102. CGCGCTCC  -0.00629
103. GTAGCGAC  -0.00447
104. GACAATAA  -0.00128
105. ACAGGTCA  0.00607
106. GTAAGGTA  0.00781
107. GCGTATAA  0.00865
108. CTATCTCA  0.00959
109. ACCTTCTG  0.0129
110. CATATTCG  0.0167
111. ATTCTACG  0.0233
112. CACAAATC  0.0271
113. AACATGTA  0.0308
114. GAATCTCC  0.0345
115. TGTGTGAA  0.0349
116. GACAGGAC  0.0367
117. AGTTACCG  0.037
118. ATAGCTGA  0.0375
119. GCGCTACA  0.0491
120. AACTTACA  0.0497
121. AATATAGG  0.0502
122. ACGTACTA  0.0572
123. CACTCTTC  0.0574
124. ATTCCCCG  0.058
125. GTGAAACA  0.0596
126. CACCGGTG  0.064
127. ATTGATGG  0.0678
128. CGTGAGCC  0.0694
129. ACTTGAGA  0.0742
130. CGGACGAA  0.0811
131. ATTAAACC  0.084
132. ATTCTTGG  0.0853
133. AACGAAAG  0.0902
134. CTCCACGA  0.0985
135. ATGTGTCG  0.102
136. GGACTTGA  0.106
137. GCTAACGA  0.107
138. AGAGGAAT  0.11
139. CGATTCTC  0.111
140. ATGAGCCG  0.112
141. AAGTAAGA  0.117
142. TCGAACAA  0.118
143. TCATGAAA  0.119
144. CGACACTC  0.122
145. ATCAATTA  0.123
146. GTGTACTA  0.127
147. CTGATCCA  0.128
148. ACACCCAT  0.132
149. AGTTTATG  0.132
150. TCTACAAA  0.134
151. CTTGTGTA  0.135
152. CTCGGGTA  0.143
153. CATGTTAC  0.144
154. ATCTATAG  0.146
155. GAATTGAC  0.148
156. CGTCCTTA  0.148
157. CTAGTAAC  0.154
158. AAATCAAA  0.155
159. ACATAATC  0.169
160. TGAACCAA  0.177
161. CTAAGATA  0.18
162. AATGTAGT  0.181
163. GTTAATGA  0.197
164. GAAGGTCA  0.198
165. CATTTGAG  0.205
166. AATCTTAT  0.207
167. ATCAATGA  0.28
168. ACTCTGAC  0.285
169. CTGGCTCA  0.319
170. ATGATTTC  0.403
171. AGGTAGTC  0.407
172. ACTCATCG  0.409
